Laboratory results taken from patent US7795244B2, “Penem prodrugs” (priority 2006, dated 2010).

Protocol: In the HIJ experiments, HIJ from 4 individual subjects (1 mL each) was pooled with 1 mL of 600 mM potassium phosphate buffer pH 7.4. Aliquots of 300 μL×6 of the buffered human intestinal juice were incubated at 37° C. following fortification of substrate at concentrations of 300, 100, 30, 10, 3, and 1 μM. Two prodrug compounds could be run at the same time. Samples of 35 μL were taken at 0, 05, 1, 2, 10, and 20 minutes and quenched with 70 μL of 80/20 acetonitrile/100 mM ammonium acetate pH 4.5 containing an internal standard (ampicillin, 5 μg/mL). Samples were centrifuged at 3000 g for 10 minutes and the supernatants transferred to injection vials. First order degradation of the prodrug was monitored by LC/MS/MS as described below. […]
Quenched samples from these in vitro experiments were quantified using LC/MS/MS. […] Ampicillin was used as an internal standard (5 μg/mL) The effluent was analyzed by a mass spectrometer detector (Sciex API 3000) fitted with a turbo ion spray interface and operated in positive ion mode with a declustering potential of 10V, temperature of 400° C. and collision energy of 25V. All prodrugs, sulopenem, and ampicillin, were monitored by MRM transitions of the protonated parent mass to a major fragment ion in the collision induced dissociation spectra. […]

Row | Compound | gastrointestinal stability (in words)
1 | CCC(CC)C(=O)OCOC(=O)C1=C(S[C@H]2CC[S@@+]([O-])C2)S[C@@H]2[C@@H]([C@@H](C)O)C(=O)N12 [Compound 1, (2-Ethyl-1-oxobutoxy)methyl (5R,6S)-6-[(1R)-1-hydroxyethyl]-7-oxo-3-[[(1R,3S)-tetrahydro-1-oxido-3-thienyl]thio]-4-thia-1-azabicyclo[3.2.0]hept-2-ene-2-carboxylate] | Improved gastrointestinal stability
2 | C[C@@H](O)[C@H]1C(=O)N2C(C(=O)OCOC(=O)OC3CCC(C)(C)CC3)=C(S[C@H]3CC[S@@+]([O-])C3)S[C@H]12 [Compound A] | inherent instability in the gastrointestinal tract
